# Measured values reported in paper PMC4336329 (PLoS ONE, 2015).
# Screen size: about 310,000 compounds; about 14,000 (4.5%) showed an effect of 50% or more. Effects have a minus sign here. The list shows a part of the results.
# Molecular target: human ether-à-go-go-related gene (hERG) potassium channel (human, UniProt Q12809)
# Assay: primary screen, population patch clamp on CHO cells stably expressing hERG
# 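Also: peak tail current of the secondary pulse compared with the same well before compound.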
# Sequence of human ether-à-go-go-related gene (hERG) potassium channel (Q12809 whole entry, looked up): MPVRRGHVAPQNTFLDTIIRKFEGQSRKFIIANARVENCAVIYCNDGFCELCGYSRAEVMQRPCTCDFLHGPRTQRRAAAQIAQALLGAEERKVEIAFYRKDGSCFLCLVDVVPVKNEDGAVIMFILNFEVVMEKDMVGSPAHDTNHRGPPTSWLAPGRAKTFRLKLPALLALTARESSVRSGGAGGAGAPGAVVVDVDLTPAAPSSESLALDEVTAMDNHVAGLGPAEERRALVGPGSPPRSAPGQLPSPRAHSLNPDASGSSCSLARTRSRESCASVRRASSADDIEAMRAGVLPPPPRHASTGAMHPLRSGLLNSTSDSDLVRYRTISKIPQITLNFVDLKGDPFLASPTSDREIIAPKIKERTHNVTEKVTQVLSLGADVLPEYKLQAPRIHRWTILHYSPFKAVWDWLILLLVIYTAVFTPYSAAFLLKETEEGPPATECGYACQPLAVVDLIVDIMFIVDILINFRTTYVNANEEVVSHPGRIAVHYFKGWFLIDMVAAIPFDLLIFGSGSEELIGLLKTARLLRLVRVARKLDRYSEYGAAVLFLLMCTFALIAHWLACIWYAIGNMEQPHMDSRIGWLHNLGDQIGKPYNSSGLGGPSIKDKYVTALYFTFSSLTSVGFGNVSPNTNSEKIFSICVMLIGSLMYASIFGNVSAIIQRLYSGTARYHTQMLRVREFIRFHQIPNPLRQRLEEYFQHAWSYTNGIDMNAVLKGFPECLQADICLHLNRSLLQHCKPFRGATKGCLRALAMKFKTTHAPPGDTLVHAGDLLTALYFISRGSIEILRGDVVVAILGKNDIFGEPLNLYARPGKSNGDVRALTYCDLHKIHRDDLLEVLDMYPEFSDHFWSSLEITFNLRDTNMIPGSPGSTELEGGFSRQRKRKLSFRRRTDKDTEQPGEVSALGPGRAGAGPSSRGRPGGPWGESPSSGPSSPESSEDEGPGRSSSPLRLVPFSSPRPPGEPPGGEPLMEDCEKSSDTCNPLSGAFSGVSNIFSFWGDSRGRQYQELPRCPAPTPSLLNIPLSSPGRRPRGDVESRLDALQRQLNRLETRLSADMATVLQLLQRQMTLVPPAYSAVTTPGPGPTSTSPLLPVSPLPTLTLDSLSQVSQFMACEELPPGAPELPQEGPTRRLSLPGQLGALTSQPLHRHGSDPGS
row,SMILES,"hERG current change (%, negative = inhibition) at 10uM [%]"
1,CCC(C(=O)O)n1cnc2scc(-c3ccc(C)c(C)c3)c2c1=O (stereo not shown),19.1
2,COc1ccc(Cc2n[nH]c(=S)n2Cc2ccccc2)cc1Cl,-22.3
3,CCCC(=O)N(CCN1CCOCC1)c1nc2c(C)ccc(C)c2s1.Cl,-4.63
4,COc1ccccc1CNC(=O)C1CC(c2c(Cl)cccc2Cl)=NO1 (stereo not shown),-17.8
5,Cc1c(C)n(C)c2ccc(C(=O)NCc3cccs3)cc12,-19.7
6,Cc1ccc(Cn2ccsc2=NC(=O)CCl)cc1,25
7,O=C(Nc1cc(F)cc(F)c1)c1sc(Cl)nc1-c1ccccc1,0.238
8,CC(NC(=O)c1cc(COc2ccccc2)on1)c1nccs1 (stereo not shown),-4.41
9,CCN(CC)S(=O)(=O)c1ccc(N2CCN(C)CC2)c(NC(=O)Nc2ccccc2F)c1,-21
10,Cc1cc(NC(=O)CSc2nnc(N)s2)c([N+](=O)[O-])cc1C,5.07
11,COC(=O)C1=C(C)NC(C)=C(C(=O)OC)C1c1cn(-c2ccccc2)nc1-c1ccco1,8.61
12,CCC1CCCCN1C(=O)Nc1cccc(NC(=O)N2CCCCC2CC)c1 (stereo not shown),9.57
13,Cc1ccc(N/C=C/C(=O)c2ccc(C)cc2)cc1,-2.78
14,Cc1ccc(NC(=O)NCCCN2CCOCC2)cc1,4.63
15,CC(/C=C/c1ccccc1)=N/NC(=O)c1nc2nc(C)cc(C)n2n1,-14.7
16,Cc1csc(=O)n1CC(=O)OCC(=O)NCc1ccc(Cl)cc1Cl,-3.2
17,Cc1cc(-c2csc(NC(=O)c3ccc(S(=O)(=O)N(C)C)cc3)n2)c(C)n1-c1ccccc1,2.83
18,CCCCc1nc2sc3c(=O)n(N)cnc3c2c2c1CCC2,3.93
19,COCCNC(=O)c1cccc(OC2CCN(Cc3ccc(Cl)c(F)c3)CC2)c1,-37.5
20,COC(=O)c1ccccc1NC(=O)COC(=O)c1ccco1,0.914
21,Cc1cc(NC(=O)CSCC(=O)Nc2nc3ccccc3s2)no1,-6.12
22,COc1ccc(C(=O)/C=C(\C)NCc2ccc3c(c2)OCO3)cc1,-35.8
23,COc1ccc(NC(C)=O)cc1NC(C)C(=O)Nc1ccc(S(=O)(=O)N2CCCCC2)cc1 (stereo not shown),0.782

row,SMILES,"hERG current change (%, negative = inhibition) at 10uM [%]"
1,Cc1ccc(C(=O)Nc2ccc(SC(F)F)cc2)s1,24.4
2,CCN(CC(=O)Nc1ccc(C)c(F)c1)CC(=O)NC(C)(C)C,12.4
3,Cc1nc2ccc3[nH]snc3c2n1,-0.204
4,C=CCOc1ccccc1/C=N/NC(=O)c1ccc(Cl)cc1Cl,-6.98
5,COc1ccccc1-c1nc2cc3ccccc3cc2nc1-c1ccccc1OC,-4.3
6,COc1ccc(NC(=O)c2ccc3ncsc3c2)cc1,14.1
7,Cc1ccc(CNC(=O)CCC2CCCN(Cc3cccc4c3OCO4)C2)o1 (stereo not shown),-63.2
8,Cc1cnc(NC(=O)Cc2c[nH]c3ccccc23)s1,-0.557
9,Cc1cccc(OC(C)C(=O)N2CCCc3ccccc32)c1 (stereo not shown),-2.93
10,CC(OC(=O)c1cccs1)C(=O)NCc1ccccc1 (stereo not shown),-4.81
11,CC(=O)Nc1ccc(C(=O)NCCN2CCOCC2)cc1,15.8
12,O=C(Nc1ccnn1C1CCN(Cc2ccccc2)CC1)c1ccccc1Cl,-76.1
13,Cc1ccc(N(CC(O)CN(C)C)S(=O)(=O)c2ccccc2)cc1.Cl (stereo not shown),-68.1
14,COc1cccc(/C=N/NC(=O)c2nnn(-c3nonc3N)c2-c2cccs2)c1,16.4
15,O=C1CCC(=O)N1OCCCOc1ccccc1,-2.09
16,O=C1CN(C(=O)COc2c(Cl)cccc2Cl)c2ccccc2N1,-29.1
17,c1ccc2c(N3CCCCC3)nc(N3CCOCC3)nc2c1,-33.7
18,CC1NC(=O)c2ccccc2-n2c1nc1cc(F)ccc1c2=O (stereo not shown),0.017
19,CCOC(=O)N1CCN(Cc2ccccn2)CC1.O=C(O)C(=O)O,0.59
20,COc1cccc(C(=O)NNC(=O)Cc2cccs2)c1,15.5
21,CCN(CC)S(=O)(=O)c1cc(NC(=O)c2ccc(-n3cncn3)c([N+](=O)[O-])c2)ccc1C,7.21
22,CCOC(=O)C1CCCN(C(=O)Cn2nc(CC)n3c(cc4sccc43)c2=O)C1 (stereo not shown),-28.1
23,C[n+]1cc(-c2ccccc2)oc1-c1ccccc1,19.1

row,SMILES,"hERG current change (%, negative = inhibition) at 10uM [%]"
1,COc1ccc(-n2c(C)nn(C)c2=O)c(OC)c1,4.47
2,CCn1c(SCC(=O)c2ccc3c(c2)OCCO3)nnc1-c1ccco1,0.17
3,CC(=O)/C=C/c1ccccc1Oc1c(F)c(F)nc(F)c1F,-0.722
4,O=C(N/N=C/c1ccc2c(c1)OCO2)C(=O)N1CCCC1,10.1
5,C=CCn1c(=O)c(C(=O)NCc2ccccc2Cl)c(O)c2ccccc21,9.91
6,C/C(CC(=O)NCc1ccccc1Cl)=N/NC(=O)c1ccccn1,6.76
7,Clc1ccc(Nc2c3c(nc4ncnn24)CCC3)cc1,8.29
8,CCOc1ccc(-c2nc(C#N)c(N3CCCCCC3)o2)cc1,-0.783
9,Cc1nc2cc(C(=O)O)ccc2n1C1CCCCC1,7.52
10,O=C(CC12CC3CC(CC(Br)(C3)C1)C2)OCCN1CCCCC1,3.99
11,O=C(CSc1ncnc2ccccc12)NCc1ccco1,7.75
12,COc1ccc(S(=O)(=O)N(CCC(=O)O)Cc2ccccc2)cc1,13.7
13,COc1ccc(NC(=S)Nc2ccccc2SC)c(OC)c1,28.2
14,COc1ccc(C(=O)NNC(=S)NC(=O)c2ccco2)cc1,15.2
15,CCOc1ccc(Cl)cc1S(=O)(=O)NC1CCCC1,-3.26
16,CCS(=O)(=O)c1ccc(-c2cccc(NC(=O)COc3ccccc3)c2)nn1,6.57
17,Nc1cc(OCC(F)(F)F)cc([N+](=O)[O-])c1,15.3
18,COc1cc(OC)c(C#N)c(S(=O)(=O)Cc2ccccc2)c1,-3.9
19,Cc1ccc(NC(=O)Nc2cc(C(F)(F)F)c[nH]c2=O)cc1,11.4
20,Cn1c(C(=O)NCc2cccs2)cc2oc3ccccc3c21,5.98
21,CCc1noc(C)c1C(=O)N1CCN(S(=O)(=O)c2ccc(C(C)C)cc2)CC1,-15.8
22,CCOc1cc(/C=N/NC(=O)c2cccnc2)ccc1OCC(=O)N(C)C,19.3
23,CCOC(=O)N1CCN(C(=O)c2oc(=O)c3ccccc3c2-c2ccc(C)cc2)CC1,-31.4

row,SMILES,"hERG current change (%, negative = inhibition) at 10uM [%]"
1,Cl.O=C(CN1CCN(c2ncccn2)CC1)N(Cc1ccccc1)c1ccc(F)cc1,-1.72
2,CN(C)S(=O)(=O)c1cccc(NC(=O)/C=C/c2ccccc2[N+](=O)[O-])c1,-5.47
3,O=C1C2C3C=CC(C3)C2C(=O)N1c1n[nH]c(-c2ccccc2)n1 (stereo not shown),1.32
4,COc1ccc(S(=O)(=O)NCC2CCCN(C(=O)c3cccs3)C2)cc1 (stereo not shown),-14.5
5,COc1ccc(N2CCN(C(=O)c3sc4ncn(CC(=O)N5CCCCC5C)c(=O)c4c3C)CC2)cc1 (stereo not shown),-24.1
6,CCCNS(=O)(=O)c1ccc(Oc2ncc(C(F)(F)F)cc2Cl)cc1,10.8
7,O=C(Nc1cccc(-n2cnnn2)c1)c1cccs1,-5.87
8,O=C(NCCCN1CCN(C2CCCCC2)CC1)Nc1ccccc1C(F)(F)F,-32.3
9,Cc1c(C(=O)NCc2ccc3c(c2)OCO3)oc2ccc(S(=O)(=O)N3CCCCCC3)cc12,0.236
10,O=C(COC(=O)c1cc(-c2cccs2)nn1-c1ccccc1)Nc1cccc([N+](=O)[O-])c1,-2.97
11,O=C(NCc1cccs1)C1CCN(c2nc3ccccc3o2)CC1,-18.8
12,COCCCNCCOCCOc1ccc(C)cc1Br,-26.8
13,Cc1ccc(C)c(C(C)NC(=O)c2ccccc2Br)c1 (stereo not shown),8.87
14,Cc1ccc(NC(=O)CSc2ccc(-c3ccccn3)nn2)cc1F,13
15,C=CCn1c(COc2ccccc2OC)nc2ccccc21,-0.267
16,CCOC(=O)CNC(=O)C(CC(C)C)NC(=O)C1CCCCC1 (stereo not shown),-2.63
17,CCOc1ccccc1/C=N/NC(=O)CNC(=O)c1ccc(S(=O)(=O)N2CCOCC2)cc1,2.06
18,O=C(NCc1ccc2c(c1)OCO2)c1cc2c(s1)CSC2,5.75
19,O=C(c1ccco1)N1CCN(CC(O)Cn2c3ccccc3c3ccccc32)CC1 (stereo not shown),-41.9
20,COc1ccc(C)cc1N(C(=O)COc1cccc(F)c1)c1nc2ccccc2s1,-27.2
21,COc1ccc(N2CCN(c3nc4c(c(=O)n(C)c(=O)n4C)n3Cc3ccccc3)CC2)cc1,-35.1
22,O=C(c1ccccc1)c1ccccc1C(=O)N1CCCC1,1.66
